Source: PubChem BioAssay AID504832 (National Center for Advancing Translational Sciences (NCATS), 2011)
Screen size: about 310,000 compounds; about 18,000 (5.8%) were called active. Inconclusive results, whose numbers are uncertain, are shown with a selection of clear calls. Calls follow the shape of the dose curve; as a rule, active = well fitted inhibition curve with a large enough effect; inconclusive = small, poorly fitted or top-dose-only effect, or another doubt; inactive = no such curve, though single readings can be large or run the other way. Potencies of inconclusive entries are left out as doubtful fits.

assay: Primary qHTS for delayed death inhibitors of the malarial parasite plastid, 48 hour incubation; details: P. falciparum luciferase growth in erythrocytes; series mostly up to 28.7 µM; activity change, negative = inhibition: at the top concentration
Method in brief: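 Parasite viability was followed by luminescence of a genomically integrated firefly luciferase. Cultures held 0.1% parasitemia at 2% hematocrit (final), incubated under 5% CO2 at 37 C.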
% is scaled to controls: 0 for no effect and ±100 for the full control effect; potency is read from the fitted curve at half-maximal effect; tags tell the direction and shape of the fitted curve.

Compound | Potency | activity change, negative = inhibition
CCOCC(=O)Nc1ccc(OCc2ccccc2)cc1 | inconclusive [inhibitor, single point] | 
CCc1nnc(NC(=O)[C@@H](NC(=O)c2cccc(S(=O)(=O)N(CC)CC)c2)C(C)C)s1 | active: 1.65 µM | 
COc1ccccc1N1CCN(C(=O)c2cccc(S(=O)(=O)NCc3cccnc3)c2)CC1 | inconclusive [inhibitor, single point] | 
COC(=O)c1cc(NC(=O)c2ccc(Cn3cc(Cl)cn3)o2)cc(C(=O)OC)c1 | inconclusive [inhibitor, single point] | 
COc1cccc(/C=N/NC(=O)NC2CCCCC2)c1O | inconclusive [inhibitor, partial curve, poor fit] | 
COCCN(CCOC)C(=O)C1CCN(c2ccc(S(=O)(=O)N3CCOCC3)cc2[N+](=O)[O-])CC1 | inconclusive [inhibitor, partial curve, poor fit] | 
Cc1ccc[n+](C(C)C(=O)Nc2ccc(C)c([N+](=O)[O-])c2)c1 (configuration not stated) | inconclusive [inhibitor, full curve, poor fit] | 
O=C(NC(=S)N1CCN(Cc2ccccc2)CC1)c1cccnc1 |  | inactive: -22.2%
COc1cc(C(=O)NC(C)c2ccc3ccccc3c2)cc(Cl)c1O (configuration not stated) |  | inactive: 0.524%
CCOC(=O)C1=C(CSc2nc3c(cc2C#N)CCC3)OC(N)=C(C#N)C1c1ccccc1 (configuration not stated) |  | inactive: -2.68%
COc1ccccc1/C=N/NC(=O)c1csc(C)c1C |  | inactive: 54.7%
CCCCCOc1ccc(C(C)(O)C(CN2CCOCC2)c2ccccc2)cc1 (configuration not stated) | inconclusive [inhibitor, partial curve] | 
Clc1ccc(N2CCN(/N=C/c3cccnc3)CC2)cc1 | inconclusive [inhibitor, single point] | 
CCOc1c(Cl)cc(/C=C/C(=O)N(CC)CC(=O)NCc2cccs2)cc1OC | inconclusive [inhibitor, single point] | 
Clc1cccc(Nc2nc(N3CCOCC3)nc(N3CCOCC3)n2)c1 | inconclusive [inhibitor, partial curve, poor fit] | 
CCCCn1c(CN2CCN(C(=O)c3ccco3)CC2)nc2c1c(=O)n(C)c(=O)n2C | inconclusive [inhibitor, partial curve, poor fit] | 
NC(=O)c1c(NC(=O)c2ccccc2)sc2c1CCC2 |  | inactive: 119%
COCCCn1c(=N)c(C(=O)NCc2ccc3c(c2)OCO3)cc2c(=O)n3ccccc3nc21 | inconclusive [inhibitor, single point] | 
C=CCNC(=O)C1CCN(S(=O)(=O)c2ccc3ccccc3c2)CC1 | inconclusive [inhibitor, partial curve, poor fit] | 
CCc1noc(C)c1C(=O)N(CC(C)C)c1c(N)n(Cc2ccccc2)c(=O)[nH]c1=O |  | inactive: -20.8%
O=C(NC1CCCCC1)N1CCC(c2nc3ccc(Cl)cc3[nH]2)CC1 | inconclusive [inhibitor, single point] | 

Compound | Potency | activity change, negative = inhibition
COCCN1Cc2c(sc(C)c2C)N(C(=O)c2ccccc2)C1 | inconclusive [inhibitor, partial curve, poor fit] | 
CCn1c(=N)c(S(=O)(=O)c2ccc(C)cc2)cc2c(=O)n3ccccc3nc21 |  | inactive: -11.8%
CCN1CCCC1CNC(=O)C(=O)Nc1ccccc1OC (configuration not stated) |  | inactive: 13.6%
COc1ccc(OC)c(-n2c(SCC(=O)Nc3cccc(S(N)(=O)=O)c3)nc3ccccc3c2=O)c1 | inconclusive [inhibitor, partial curve, poor fit] | 
CCC(=O)N1CCc2cc(Br)cc(S(=O)(=O)NCC3CCCO3)c21 (configuration not stated) | inconclusive [inhibitor, partial curve, poor fit] | 
COCCNC(=S)N/N=C(\C)c1ccc(C)c([N+](=O)[O-])c1 | inconclusive [inhibitor, partial curve, poor fit] | 
Cc1ccc2c(c1)[C@H]1[C@H](CO2)[C@H](c2ccccc2)[C@]2(C)C(=O)N(Cc3ccc(Cl)cc3)CC(=O)N12 | inconclusive [inhibitor, single point] | 
Oc1ccc(Br)cc1CNc1ccccn1 | inconclusive [inhibitor, full curve] | 
CC(C)(C)c1ccc(S(=O)(=O)N2CCN(C(=O)C3=COCCO3)CC2)cc1 | inconclusive [inhibitor, single point] | 
O=C(NCCCO)c1cc2c([nH]c3ccccc32)c(-c2ccc(F)cc2)n1 | active: 9.28 µM | 
C=CCN(CC=C)S(=O)(=O)c1ccc(NC(=O)COc2ccccc2OC)cc1 | inconclusive [inhibitor, single point] | 
Cn1c(O)c(N=NC(=O)CNC(=O)c2ccccc2)c2ccccc21 |  | inactive: 19.3%
O=C1c2cnccc2CN1Cc1ccccc1 |  | inactive: 40.7%
COc1ccc(-c2csc(NC(=O)c3cc(=O)c4ccccc4o3)n2)cc1OC |  | inactive: 1.36%
CC1(c2ccccc2)NC(=O)N(CC(=O)N2CCN(S(=O)(=O)c3cccc([N+](=O)[O-])c3)CC2)C1=O (configuration not stated) | inconclusive [inhibitor, partial curve, poor fit] | 
COc1ccccc1N1CCN(C(c2ccccc2Cl)c2nnnn2C(C)(C)C)CC1 (configuration not stated) | inconclusive [inhibitor, single point] | 
Cc1nn(C(C)C(=O)NCCCN(Cc2ccccc2)C(C)C)c(=O)c2c1sc1ccccc12 (configuration not stated) | inconclusive [inhibitor, partial curve] | 
O=C1C2C(C(=O)N1/N=C/c1cc(Br)cc([N+](=O)[O-])c1O)C1C=CC2C12CC2 (configuration not stated) | inconclusive [inhibitor, single point] | 
CCC1CCCCN1CCCNC(=O)c1cc2c(Cl)nc3ccccc3c2s1 (configuration not stated) | active: 11.7 µM | 
CCOc1ccccc1Nc1cc2n(c(=O)n1)CCc1cc(OC)c(OC)cc1-2 | inconclusive [inhibitor, partial curve, poor fit] | 
CC(C(=O)N1CCc2ccccc21)N(C)CC(=O)Nc1cccc(F)c1 (configuration not stated) | inconclusive [inhibitor, single point] | 
